Laboratory results reported in PubChem BioAssay AID1347073 (National Center for Advancing Translational Sciences (NCATS), 2019).
Screen size: about 45,000 compounds; about 200 (0.44%) were called active. Not shown: some 7% with an inconclusive outcome. Calls follow the shape of the dose curve; as a rule, active = well fitted activation curve with a large enough effect; inconclusive = small, poorly fitted or top-dose-only effect; inactive = no such curve, though single readings can be large or run the other way. This is one part of the list.
Potency is read from the fitted curve at half-maximal effect.

Assay: qHTS of TDP-43 Inhibitors: NCGC Sytravon Library Screen; also: nearly all actives have a fitted effect of over 55% in size; as to growth rescue (activation): 0% is about no effect
Details: yeast TDP-43 toxicity rescue, BacTiter-Glo growth, 24 h; series mostly up to 46.1 µM; growth rescue (activation): at the top concentration
How it was run: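 TDP-43-expressing yeast, pregrown in raffinose, seeded at OD600 0.02 in galactose medium with compound for 24 hr at 30 deg C. Growth read by BacTiter-Glo luminescence, so rescue of toxicity appears as activation.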
In the case of `NC(=O)CN1C(=O)NC2(CCOc3ccccc32)C1=O` (stereo not drawn), the “growth rescue (activation)” value is reported as inactive: 13.6%. With `CNc1ncnc2c1ncn2[C@H]1CN(Cc2ccco2)C[C@@H](CO)O1` the “growth rescue (activation)” value was inactive: 4.64%. For `COCCNC(=S)NNC(=O)c1cccs1`, the “growth rescue (activation)” value was inactive: 1.55%. For `COc1ccc(-c2nnc(CSc3nc4ccccc4c(=O)n3CC3CCCO3)o2)cc1OC` (stereo not drawn), the “growth rescue (activation)” value was inactive: -0.142%. In the case of `CN(C(=O)C1CCC(=O)N(Cc2ccccc2F)C1)C1CCOCC1` (stereo not drawn), the “growth rescue (activation)” value is reported as inactive: 12.8%. In the case of `CC(C(=O)OCC(=O)c1ccc(Br)cc1)N1C(=O)C2C3C=CC(C3)C2C1=O` (stereo not drawn), the “growth rescue (activation)” value is reported as inactive: -6.84%. With `COc1ccc(C(=O)Nc2ccc(S(=O)(=O)Nc3cc(C)nc(C)n3)cc2)cc1OC` the “growth rescue (activation)” value was inactive: 8.57%. For `Cc1ccc(-c2ccc(CCC(=O)O)n2NC(=O)c2ccc([N+](=O)[O-])cc2)cc1`, the “growth rescue (activation)” value was inactive: 21.1%. In the case of `Cc1cc(Cl)c(OCCOCCN2CCN(C)CC2)c(Br)c1`, the “growth rescue (activation)” value is reported as inactive: 2.37%. With `Nc1nnc(-c2ccccc2F)s1` the “growth rescue (activation)” value was inactive: -10.1%. With `COc1cc(NC(=S)NC(=O)c2ccc(F)cc2)ccc1NC(=O)c1ccco1` the “growth rescue (activation)” value was inactive: 2.5%. With `COc1ccc(OCC(=O)NNC(=O)CCc2ccccc2)cc1` the “growth rescue (activation)” value was inactive: 5.88%. In the case of `O=C(c1cccs1)N1C(=O)c2cccc3cccc1c23`, the “growth rescue (activation)” value is reported as inactive: 5.87%. With `COc1ccc(N2CCN(Cc3cc(OC)c(O)c([N+](=O)[O-])c3)CC2)cc1` the “growth rescue (activation)” value was inactive: 12.2%. With `CN(CC(=O)NCCc1ccccc1)Cc1ccco1` the “growth rescue (activation)” value was inactive: 9.5%. With `Cc1ccc(S(=O)(=O)NC(=O)Nc2cccc(S(=O)(=O)N(C)C)c2)cc1` the “growth rescue (activation)” value was inactive: 21.2%. For `O=C(NC(Cc1ccccc1)C(=O)O)/C(=C/c1ccccc1)NC(=O)c1ccco1` (stereo not drawn), the “growth rescue (activation)” value was inactive: 0.431%. For `CC(C)CNC(=O)C1(C)CCCN1C(=O)c1csnn1` (stereo not drawn), the “growth rescue (activation)” value was inactive: 5.82%. With `c1csc(-c2cn3ccc4ccccc4c3n2)c1` the “growth rescue (activation)” value was inactive: -15.4%. With `COc1ccc(NC(=O)Cn2ccc(C(F)(F)F)n2)cc1S(=O)(=O)N1CCOCC1` the “growth rescue (activation)” value was inactive: -0.285%. In the case of `Cc1cc(C)nc(CC(N)=O)n1`, the “growth rescue (activation)” value is reported as inactive: 9.61%. In the case of `CCc1cc[n+](CC(=O)Nc2ccc(Cl)cc2Cl)cc1`, the “growth rescue (activation)” value is reported as inactive: 6.75%. With `COc1ccc(-c2noc(-c3csc([C@@H]4O[C@H](CO)[C@H](O)[C@H](O)[C@H]4O)n3)n2)cc1OC` the “growth rescue (activation)” value was inactive: 5.92%. In the case of `CCOC(=O)C1CCN(S(=O)(=O)c2ccc(OCC)cc2)CC1`, the “growth rescue (activation)” value is reported as inactive: -1.84%. For `CCOC(=O)/C=C1/SCC(=O)N1CC(=O)Nc1ccc2c(c1)CCC2`, the “growth rescue (activation)” value was inactive: 12.2%. With `Cc1ccc(-n2c(CNc3ccc(F)cc3)nnc2SCC(=O)O)cc1` the “growth rescue (activation)” value was inactive: 12.9%. In the case of `CC1CN(c2nnnn2-c2ccccc2)CC(C)O1` (stereo not drawn), the “growth rescue (activation)” value is reported as inactive: 9.28%. With `CCN(C(=O)c1cccnc1SC)C12CC3CC(CC(C3)C1)C2` the “growth rescue (activation)” value was inactive: -27%. In the case of `COc1cc(C2C(C(=O)/C=C/c3ccccc3)=C(O)C(=O)N2c2ccccn2)ccc1O` (stereo not drawn), the “growth rescue (activation)” value is reported as inactive: -1.19%. With `COc1ccc(S(=O)(=O)NC(C)C(=O)NCc2ccccn2)cc1OC` (stereo not drawn) the “growth rescue (activation)” value was inactive: 16.1%. In the case of `COC(=O)c1ccc(N2C(=O)CC(N3CCOCC3)C2=O)cc1` (stereo not drawn), the Potency is reported as active: 15.8 µM. With `Cc1cccc(C)c1NC(=O)C1(N(C(=O)c2ccccn2)c2ccc(O)cc2)CCCCC1` the “growth rescue (activation)” value was inactive: 9.9%. With `COCCCNC(=O)c1csc([C@@H]2C[C@H](O)[C@@H](CO)O2)n1` the “growth rescue (activation)” value was inactive: 9.8%. In the case of `O=Cc1ccc(OC(=O)c2cc(Cl)nc3ccccc23)cc1`, the “growth rescue (activation)” value is reported as inactive: 7.47%. In the case of `O=C(O)c1ccc2c(c1)C(=O)N(c1cccc(S(=O)(=O)Nc3cccc(C(F)(F)F)c3)c1)C2=O`, the “growth rescue (activation)” value is reported as inactive: 14.6%. In the case of `COc1cccc(/C=C2\CCC(C3CCCC3)C2=O)c1OC` (stereo not drawn), the “growth rescue (activation)” value is reported as inactive: 15.9%. With `O=C(O)c1ccc2c3c(cccc13)C(=O)N(OS(=O)(=O)c1ccccc1)C2=O` the “growth rescue (activation)” value was inactive: -9.38%. In the case of `CC(C)(CNS(=O)(=O)c1cccs1)N1CCOCC1`, the “growth rescue (activation)” value is reported as inactive: 5.01%. In the case of `Cc1ccccc1N(CC(=O)N1CCOCC1)S(C)(=O)=O`, the “growth rescue (activation)” value is reported as inactive: -21.2%. For `O=C(NN=C1CCCCCC1)c1ccc2c(c1)OCO2`, the “growth rescue (activation)” value was inactive: 7.39%. For `Cc1ccc(C(=O)Oc2oc(-c3ccccc3)nc2C=Nc2ccc(N(C)C)cc2)cc1`, the “growth rescue (activation)” value was inactive: 7.74%. In the case of `O=C(Nc1ccc(C(=O)O)cc1)/C(=C\C=C\c1ccccc1)NC(=O)c1ccc(Br)cc1`, the “growth rescue (activation)” value is reported as inactive: 10.5%. For `CCOC(=O)c1c(NC(C)=O)c2c3c(sc2n1Cc1c(C)cc(C)cc1C)CCCC3`, the “growth rescue (activation)” value was inactive: 4.9%. For `Cc1ccc(NC(=O)c2c3c(nc4ccccc24)CCC3)cc1S(=O)(=O)N(C)C`, the “growth rescue (activation)” value was inactive: -5.9%. In the case of `COc1cccc(C(NC(C)=O)c2nc(-c3cccc(O)c3)cs2)c1` (stereo not drawn), the “growth rescue (activation)” value is reported as inactive: 27.1%. For `CCCC1(CCC)NC(=O)N(CC(=O)Nc2ccc3c(c2)OCCO3)C1=O`, the “growth rescue (activation)” value was inactive: -3.37%. In the case of `Cc1ccc(NC(=O)C(=O)NC(C)C2COc3ccccc3O2)cc1` (stereo not drawn), the “growth rescue (activation)” value is reported as inactive: 25.7%. For `Cn1cc(CN2C[C@]3(C)C[C@H]2CC(C)(C)C3)c(-c2ccc3c(c2)OCCO3)n1`, the “growth rescue (activation)” value was inactive: 13.4%. With `COc1ccc(C(=O)NC2CC2)cc1OC1CCN(Cc2ccc(F)cc2)CC1` the “growth rescue (activation)” value was inactive: 4.9%. With `O=C(/C=C/c1ccccc1)NC(=S)NNS(=O)(=O)c1ccccc1` the “growth rescue (activation)” value was inactive: 1.96%. With `COc1cc(C(N)=O)cc(Br)c1OC` the “growth rescue (activation)” value was inactive: 34.1%. With `O=C1/C(=C\c2cccs2)SC(=S)N1C1CCS(=O)(=O)C1` (stereo not drawn) the “growth rescue (activation)” value was inactive: 5.99%. For `CN(C)C(=S)Nc1ccc2c(c1)OCO2`, the “growth rescue (activation)” value was inactive: 6.5%.
